# Laboratory results reported in article PMC4336329 (PLoS ONE, 2015).
# The whole screen tested about 310,000 compounds, of which about 14,000 (4.5%) showed an effect of 50% or more. Effects have a minus sign here. The list shows a part of the results.
# Biological target: human ether-à-go-go-related gene (hERG) potassium channel (human, UniProt Q12809)
# Test: primary screen, population patch clamp on CHO cells stably expressing hERG
# 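Further: peak tail current of the secondary pulse compared with the same well before compound.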
# human ether-à-go-go-related gene (hERG) potassium channel, sequence (Q12809 whole entry, looked up): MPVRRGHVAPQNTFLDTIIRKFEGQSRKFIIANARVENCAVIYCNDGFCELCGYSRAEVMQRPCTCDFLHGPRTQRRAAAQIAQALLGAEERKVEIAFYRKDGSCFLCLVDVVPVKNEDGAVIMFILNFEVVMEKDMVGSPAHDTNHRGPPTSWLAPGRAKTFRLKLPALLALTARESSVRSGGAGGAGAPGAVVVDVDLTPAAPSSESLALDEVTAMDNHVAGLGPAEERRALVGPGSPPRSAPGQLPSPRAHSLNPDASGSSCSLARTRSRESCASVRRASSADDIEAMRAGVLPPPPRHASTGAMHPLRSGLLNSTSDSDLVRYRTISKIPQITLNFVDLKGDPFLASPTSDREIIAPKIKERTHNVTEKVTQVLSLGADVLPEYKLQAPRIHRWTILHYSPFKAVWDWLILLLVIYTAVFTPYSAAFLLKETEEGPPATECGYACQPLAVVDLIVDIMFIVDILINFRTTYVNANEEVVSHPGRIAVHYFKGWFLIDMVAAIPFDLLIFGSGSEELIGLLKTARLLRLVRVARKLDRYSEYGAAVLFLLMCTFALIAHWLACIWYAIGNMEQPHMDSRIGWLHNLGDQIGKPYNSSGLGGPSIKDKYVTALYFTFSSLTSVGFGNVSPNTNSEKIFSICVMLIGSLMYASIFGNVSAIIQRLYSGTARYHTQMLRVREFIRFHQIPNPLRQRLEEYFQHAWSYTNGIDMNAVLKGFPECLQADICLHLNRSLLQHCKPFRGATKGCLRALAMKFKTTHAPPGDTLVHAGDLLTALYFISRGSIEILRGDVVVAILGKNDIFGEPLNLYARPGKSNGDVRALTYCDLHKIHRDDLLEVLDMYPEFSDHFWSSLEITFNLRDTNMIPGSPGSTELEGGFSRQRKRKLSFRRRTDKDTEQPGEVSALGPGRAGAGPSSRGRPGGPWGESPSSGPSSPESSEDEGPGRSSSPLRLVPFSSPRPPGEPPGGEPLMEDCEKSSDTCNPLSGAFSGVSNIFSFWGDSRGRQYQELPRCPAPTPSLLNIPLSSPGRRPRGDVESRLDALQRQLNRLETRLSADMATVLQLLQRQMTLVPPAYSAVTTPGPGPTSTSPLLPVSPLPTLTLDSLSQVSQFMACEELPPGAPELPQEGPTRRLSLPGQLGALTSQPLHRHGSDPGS
row,Compound,"hERG current change (%, negative = inhibition) at 10uM [%]"
1,S=C(Nc1ccc(Cc2ccncc2)cc1)Nc1cccc(Cl)c1,-15
2,O=C(COC(=O)c1ccccc1-c1ccccc1[N+](=O)[O-])c1ccccc1,-7.23
3,Cc1ccc(NC(=O)COC(=O)c2cccc(OC(F)F)c2)cc1S(=O)(=O)N1CCCCC1,-21.1
4,COc1cccc(N(CC(=O)NCCN2CCOCC2)S(=O)(=O)c2ccccc2)c1,-4.96
5,O=C(COc1ccc(Cl)cc1)Nc1ccc(C(=O)O)cc1NC(=O)COc1ccc(Cl)cc1,13.2
6,Cc1ccc(C(=O)C(C)OC(=O)CNS(=O)(=O)c2ccc(C)cc2)cc1 (stereo not drawn),-6.12
7,CCOc1ccc(-c2nc(CSCC(=O)N3CCN(C(=O)c4ccco4)CC3)c(C)o2)cc1,-28.8
8,O=c1cc(Cl)[nH]c(=O)n1Cc1ccc(F)cc1,5.07
9,O=C(C1CCN(S(=O)(=O)c2cccc3cccnc23)CC1)N1CCN(Cc2ccccc2)CC1,-14.9
10,CC1=NN(c2ccccc2)C(=O)/C1=C\c1cc(C)n(-c2cccnc2)c1C,15.1
11,O=C1CCc2cc(S(=O)(=O)N3CCN(c4cccc(Cl)c4)CC3)ccc2N1,-1.42
12,Cc1nc2c(-c3ccc(F)cc3)c(C)nn2c(C)c1CCC(=O)Nc1ccc(F)cc1F,12.9
13,CC(=O)N1CCN(c2ccc(N=Cc3c(O)n(-c4ccc(Cl)cc4)c(=O)[nH]c3=O)cc2)CC1,1.55
14,Cc1onc(-c2c(Cl)cccc2Cl)c1C(=O)Nc1ccc(C(N)=O)cc1,-5.71
15,O=C(Cn1nc(-c2ccccc2)nc1-c1ccccc1)N1CCOCC1,-13.5
16,COc1ccc(C(=O)NC(=S)Nc2cccc3nc(C)ccc23)cc1OC,8.45
17,CCOC(=O)c1[nH]c(C)c(C(=O)NCc2ccc(C)cc2)c1C,5.32
18,CCCCC(=O)Nc1ccc(C(=O)NNC(=O)c2cccs2)cc1,16.2
19,CCCN1C(=O)CSC1=Nc1ccccc1,4.34
20,CCC(C(=O)NCCCN1CCN(CC)CC1)n1nc(C)n2c(cc3occc32)c1=O (stereo not drawn),8.68
21,CC(=O)C1=C(O)C(=O)N(Cc2ccco2)C1c1ccc(F)cc1 (stereo not drawn),2.43

row,Compound,"hERG current change (%, negative = inhibition) at 10uM [%]"
1,CCOc1ncccc1C(=O)Nc1ccc(F)cc1,-5.46
2,Cc1ccc(CNC(=O)Cn2c(=O)c3sccc3n(Cc3ccc([N+](=O)[O-])cc3)c2=O)cc1,-37.9
3,N#CCNC(=O)C1c2ccccc2Oc2ccccc21,21.6
4,Cc1nc(SCC(=O)c2ccccc2)c(C#N)c(-c2ccco2)c1C(=O)NCc1ccco1,-33.9
5,CCNC(=O)CSc1nnc(-c2ccccc2)n1-c1ccc(OCC)cc1,-62.8
6,COC(=O)C1=C(COc2ccccc2)NC(=O)NC1c1ccc2ccccc2c1 (stereo not drawn),8.15
7,COc1ccc(CCNC(=O)C2CCCN(S(C)(=O)=O)C2)cc1OC (stereo not drawn),12
8,O=C(NC1CCCC1)C(c1ccccc1)N(C(=O)c1ccno1)c1ccccc1 (stereo not drawn),1.77
9,CCS(=O)(=O)C1=NSC2=NC(=O)/C(=C\c3cc(C)n(-c4cccc(OC)c4)c3C)C(=N)N21,-17.4
10,CCOC(=O)N/N=C/c1c(C)nn(-c2ccccc2Cl)c1Cl,-17.6
11,O=C1C=C(c2ccccc2)C[C@H](c2cccs2)[C@H]1n1cnc([N+](=O)[O-])c1,-18.8
12,CCCCn1c(N)c(N(CC(C)C)C(=O)c2ccc(Cl)c(S(=O)(=O)N3CCCC3)c2)c(=O)[nH]c1=O,-8.15
13,O=C(COC(=O)c1cc(=O)[nH]c(=O)[nH]1)NCc1ccccc1,10.5
14,Cc1cccc(C2Nc3cccc4cccc(c34)N2)c1,8.36
15,CCOC(=O)N1CCC(NC(=O)c2cc(-c3ccc(F)cc3)[nH]c2C)CC1,-0.721
16,COc1ccc(S(=O)(=O)N2CCN(C)CC2)cc1C(=O)N1CCCCC1,8.37
17,CCCN1C(=O)c2cc(C(=O)Nc3ccccc3OC)ccc2C1Nc1ccccc1OC (stereo not drawn),-34.7
18,O=C(C1=C[C@H](C2CC2)C[C@H](OCCCCO)O1)N1CCN(Cc2ccc3c(c2)OCO3)CC1,-26.3
19,CCCNC(=O)C(=O)N/N=C/c1ccc(OCc2ccccc2)cc1,26.9
20,CCO/N=C(/C)c1c(O)cc(-c2ccccc2)n(-c2ccccc2)c1=O,1.16
21,CCOC(=O)C1=C(C)N(c2ccc(OCC)cc2)C(=O)/C1=C\c1ccco1,8.11
